The whole screen tested about 360,000 compounds, of which about 2,600 (0.72%) were called active. Inconclusive means that the source gave no clear call. Such entries were picked first, then a sample of the others. Calls come from the whole dose curve; as a rule, active = well fitted inhibition curve with a large enough effect; inconclusive = small, poorly fitted or top-dose-only effect; inactive = no such curve, though single readings can be large or run the other way. Potencies of inconclusive entries are doubtful fits and often do not repeat.
experiment: Primary qHTS for Inhibitors of ATXN expression; conditions: HEK-293 ATXN2-luciferase reporter, luminescence, 24 h; activity change, negative = inhibition: at 57 µM (top of the series); note: nearly all actives have a fitted effect of over 55% in size
In short: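 ATXN2-luciferase reporter cells (luciferase flanked by upstream and downstream ATXN2 gene portions) were treated 24 h at 37 °C with compounds at up to 57 uM. SteadyGlo luminescence gave expression; GF-AFC fluorescence gave viability.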
% is set by controls: 0 for no effect and ±100 for the full control effect; potency is the fitted concentration of half-maximal effect; tags give direction and shape of the fitted curve.

Potency, inactive:
COc1cc(OC)cc(C(=O)/C=C2\Sc3ccccc3N2C)c1, O=C(c1cccc(Cl)c1)N1CCC(=O)N([C@H](COCc2ccccc2)Cc2ccccc2)CC1, COc1ccc(OCC(=O)OCc2cc(=O)n3nc(C4CCCCC4)sc3n2)cc1, CC(C)(C)C1CCc2c(sc(NC(=O)Cn3nnc(-c4ccccc4F)n3)c2C#N)C1 (stereo unspecified), COc1ccc(C2CC(c3c(-c4ccccc4)c4cc(Cl)ccc4[nH]c3=O)=NN2S(C)(=O)=O)cc1OC (stereo unspecified), Cc1ccccc1C(=O)Nc1ccc(-c2nc3ccc(C(=O)c4ccccc4)cc3[nH]2)cc1, C/C=C/c1cccc(-c2nc(C(=O)NC3CCC3)cc3c2[C@H](CCO)N(S(=O)C(C)(C)C)C3)c1 (stereo partly specified), Cc1ccc(C)c(NC(=O)c2sc(Cl)nc2C)c1, O=C(Nc1cc(Br)ccc1O)C1CC(c2c(F)cccc2Cl)=NO1 (stereo unspecified)

Potency, inconclusive:
CCc1nc2c(OCc3ccccc3C(=O)OC)cccn2c1N(C)C(=O)Nc1ccccc1OC 28.2 µM [inhibitor, partial curve, poor fit], O=C(CSc1nc(=O)n2ccccc2n1)N1CCC(Cc2ccccc2)CC1 7.08 µM [inhibitor, single point], Cc1ccc(N(CC(=O)NC2CCCC2)C(=O)CCC(=O)Nc2nccs2)c(C)c1 0.336 µM [inhibitor, full curve, poor fit], Cn1ccc2cc(-c3ccc4ncnc(NCc5cccs5)c4c3)ccc21 14.1 µM [inhibitor, partial curve, poor fit], C=C1[C@H](n2cnc3c(=O)[nH]c(N)nc32)C[C@H](O)[C@H]1CO 24.3 µM [inhibitor, partial curve], Cc1ccc(C(=O)Nc2cccc(C(=O)O)c2)cc1S(=O)(=O)N1CCCC1 14.1 µM [inhibitor, partial curve], Clc1cccc(Cc2c(-c3ccco3)nc3ccc(Cl)cn23)c1 25.1 µM [inhibitor, single point], CCC[C@H](CN[C@@H](CNC)[C@H](C)CC)NCCc1cc(C(F)(F)F)cc(C(F)(F)F)c1 31.6 µM [inhibitor, single point], O=C(Nc1cccc(S(=O)(=O)NC2=NCCCCC2)c1)c1cc(-c2ccco2)nc2ccccc12 39.8 µM [inhibitor, single point], COc1ccc(NC(C)C(=O)N/N=C/c2c(O)ccc3ccccc23)cc1 (stereo unspecified) 7.08 µM [inhibitor, full curve, poor fit], Cc1nc(SCc2nc3ccc(Cl)cc3[nH]2)c2oc3ccccc3c2n1 31.6 µM [inhibitor, single point], O=[N+]([O-])c1ccc(N/N=C\c2cccn2-c2ccccc2)nc1 39.8 µM [inhibitor, single point], CCOc1ccc(OCc2ccc(C(=O)O)o2)cc1 15.8 µM [inhibitor, single point], Cc1c(CCOC(=O)C23CC4CC(CC(C4)C2)C3)sc[n+]1CC#N 22.4 µM [inhibitor, single point], CC1(C)CC2CC(C)(CN2c2ncnc3ccccc23)C1 (stereo unspecified) 28.2 µM [inhibitor, single point], CCOC(=O)c1sc2ccc(S(=O)(=O)N3CCCCC3)cc2c1N 28.2 µM [inhibitor, single point], COc1cccc(/C=N/NC(=O)c2cc(-c3cccn3C)n[nH]2)c1O 1.26 µM [inhibitor, full curve], CCOc1ccccc1-c1nnc(SCC(=O)Nc2ccccc2)o1 3.55 µM [inhibitor, single point], COc1cc(/C=N\NC(=O)c2ccccc2F)ccc1Oc1ccc([N+](=O)[O-])cn1 6.7 µM [inhibitor, partial curve], CC(NC(=O)CN1C(=O)NC(Cc2ccccc2)(Cc2ccccc2)C1=O)C12CC3CC(CC(C3)C1)C2 (stereo unspecified) 25.1 µM [inhibitor, single point], COc1ccc(-n2c(N)c(C(=O)NCc3ccco3)c3nc4ccccc4nc32)cc1OC 1.5 µM [inhibitor, single point], Clc1ccccc1OCCNc1nc(NCC2CC2)nc2ccsc12 17.8 µM [inhibitor, partial curve, poor fit], CCOc1cc(/C=C\[N+](=O)[O-])ccc1OCC(=O)N1CCOCC1 37.7 µM [inhibitor, single point], CCc1ccc2nc(N(CCCN(C)C)C(=O)c3ccc(S(=O)(=O)N4CCCc5ccccc54)cc3)sc2c1 35.5 µM [inhibitor, single point], CN(CC(=O)Nc1ccc(Cl)c(C(F)(F)F)c1)C(=O)c1ccc(S(=O)(=O)N2CCOCC2)cc1 28.2 µM [inhibitor, partial curve, poor fit], CN1CCC[C@H]1CCO[C@](C)(c1ccccc1)c1ccc(Cl)cc1 21.7 µM [inhibitor, partial curve], COc1cc(C(=O)Nc2ccc(O)cc2)ccc1OC(C)=O 39.8 µM [inhibitor, single point], Cc1cccc(NC(=O)c2ccc(N(Cc3ccccc3)S(C)(=O)=O)cc2)c1 39.8 µM [inhibitor, single point], Cc1ccc2c(c1)C(c1ccc(F)cc1)N(C(=O)COc1ccc(Cl)cc1Cl)CC(=O)N2 (stereo unspecified) 35.5 µM [inhibitor, single point]

Potency, active:
C[C@H](NCc1ccc2c(c1)nc(NC(=O)c1ccc(-c3cn[nH]c3)s1)n2CCc1ccccc1)C(C)(C)C 1.93 µM, N#CCNC(=O)c1ccc(-c2ccnc(Nc3ccc(N4CCOCC4)cc3)n2)cc1 19.3 µM

Activity change, negative = inhibition, inconclusive:
O=C1CCCC(O)=C1N=Nc1cccc(C(=O)O)c1 -69.9% [inhibitor]
